No constants are given. Whether binding was seen depends on the method and setting. For part of these data: Binding seen in cells or lysates may run through a third protein. Some binding calls cover weakened binding; strength is not graded here.
Experiments:
[1] = target: GFP-tagged rat Bcl2 (residues 1-156) (rat) (UniProt P49950); assay: condition: only cells treated with 10 uM MA for 12 hours; co-IP; as a9 but the cells were treated with 10 uM MA for 12 hours
[2] = target: GFP-tagged rat Bcl2 (residues 1-156) (rat) (UniProt P49950); assay: co-IP; PC12 cells transfected with GFP-tagged Bcl2, lysate precipitated with GFP antibody and Dynabeads protein G, blot for endogenous Beclin1; without MA
[3] = target: GST-tagged rat Bcl2 (residues 1-156) (rat) (UniProt P49950); assay: condition: only in the presence of MA (20 μM and 10 μM tested); pull-down; as a1 but in the presence of MA (20 μM and 10 μM tested); both purified
[4] = target: BH3 motif containing region of rat Bcl2 (residues 1-156), un-tagged version (rat) (UniProt P49950); assay: ITC; 200 μM Beclin1 titrated into 20 μM Bcl2 containing 10 μM MA, 50 mM Tris pH 8.0, 150 mM NaCl; both purified
[5] = target: BH3 motif containing region of rat Bcl2 (residues 1-156), un-tagged version (rat) (UniProt P49950); assay: dynamic light scattering; as a5 but with a final concentration of 10 μM MA; both purified
[6] = target: BH3 motif containing region of rat Bcl2 (residues 1-156), un-tagged version (rat) (UniProt P49950); assay: SEC-MALS; as a3 but with a final concentration of 10 μM MA; both purified

Chains of the proteins cited; added tags and fusions are not shown. Lines headed by an entry give the natural chain unless they say otherwise; changes in a name come on top. Residues count along the entry.
UniProt P49950, residues 1-156: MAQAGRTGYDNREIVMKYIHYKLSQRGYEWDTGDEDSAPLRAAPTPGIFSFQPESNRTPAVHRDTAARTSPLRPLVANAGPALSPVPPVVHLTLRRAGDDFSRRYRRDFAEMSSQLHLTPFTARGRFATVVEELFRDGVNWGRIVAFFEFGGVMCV
UniProt Q91XJ1: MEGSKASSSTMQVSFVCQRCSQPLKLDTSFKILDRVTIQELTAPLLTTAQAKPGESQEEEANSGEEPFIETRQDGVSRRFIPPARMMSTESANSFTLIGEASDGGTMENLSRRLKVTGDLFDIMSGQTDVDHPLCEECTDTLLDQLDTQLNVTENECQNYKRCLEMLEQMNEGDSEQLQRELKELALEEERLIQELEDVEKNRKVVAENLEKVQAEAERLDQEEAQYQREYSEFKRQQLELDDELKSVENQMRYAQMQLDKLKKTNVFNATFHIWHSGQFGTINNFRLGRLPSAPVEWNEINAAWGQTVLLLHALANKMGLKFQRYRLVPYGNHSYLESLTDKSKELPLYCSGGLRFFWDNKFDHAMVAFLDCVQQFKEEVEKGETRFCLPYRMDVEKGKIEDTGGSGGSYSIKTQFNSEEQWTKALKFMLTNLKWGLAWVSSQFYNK

Row | binding [1] | binding [2] | binding [3] | binding [4] | binding [5] | binding [6] | Substance
1 | no binding | binds |  |  |  |  | endogenous Beclin1 of PC12 cells (from UniProt Q91XJ1 1-448)
2 |  |  | no binding | no binding (condition: with 10 μM MA) | no binding (condition: with 10 μM MA) | no binding (condition: with 10 μM MA) | rat Beclin1 BH3 domain and Coiled Coil domain (residues 100-266) (from UniProt Q91XJ1 100-266) (domain or fragment)

— article PMC5650360, “Maslinic acid promotes autophagy by disrupting the interaction between Bcl2 and Beclin1 in rat pheochromocytoma PC12 cells” (Oncotarget, 2017)
